# This is one part of the list.
# Test system: PfHDP1 homeodomain (GST-tagged)
# Assay: gcPBM binding intensity (ln(normalized median fluorescence intensity)); higher = stronger DNA binding
# In short: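 The highest Masliner-normalised natural-log median intensity across replicate spots of either probe orientation is reported as binding intensity. GST-tagged P. falciparum DNA-binding domains expressed in E. coli were applied for 1 h to an Agilent 4 × 180k array of primer-extended double-stranded 36-bp intergenic genomic probes plus negative controls, and bound protein was detected with Alexa488 anti-GST antibody and scanned at 488 nm.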
row,Sequence,gcPBM binding intensity (ln)
1,ATACCTTCTTCATTCACACATATACGTAAAATGTTC [CACACA_site5657],7.04
2,TTTAAACTAGAACAAGTGCAGATATGTATAATAATA,7.27
3,TTTTATTTTGGAACGTGTACATATAATTATTTATTG [XGTACX_site8094],6.52
4,TATTTTTAGAAAATAAAGAAGGAGAATTGAAAATAT [CACACA_negctrl_site361],6.56
5,AAGAAAAGATATATATATAAATATATATATATATAT [TGCATGCA_negctrl_site353],9.09
6,ATTTATTTTTATCAAGCATGCATAAAAAATAAATTA [TGCATGCA_site440],6.53
7,TTTATACAATTAGACACACACAAAAAGTATAAATAT [CACACA_site6637],6.97
8,ATATCACATTCCACGGTACACACTAATAGAAAAATC [CACACA_site9204],6.68
9,GGAACATATGAACTCACACACATTTTCACTTAAATA [CACACA_site3684],6.54
10,AATATTTATAAATTTACACACACACCGGTGAACATA [CACACA_site8579],6.97
11,TAAAATGATAAATGAATGTGATCATTTTATAAAATA [CACACA_negctrl_site674],6.3
12,ATATATCACATGAACATTAAAAAAAAAAAAGAGGGG [TGCATGCA_negctrl_site187],6.24
13,TTTAAAAAAAAAAAAAAAAATTCTACATGTAATTTA [CACACA_negctrl_site1205],5.76
14,TGACATAAATTTAATACACACACAAAGAAAAAAAAA [CACACA_site9354],6.83
15,TGATTAATAGCAGGTAGTACTATAATAATATAAATA [XGTACX_site2776],6.55
16,GTTCCATATATTACATGTACATATTTTTACATTTAA [XGTACX_site660],7.5
17,AGAAGAAAAGAAATATGTACATAAACGTCTGAACTA [XGTACX_site1699],6.62
18,ATAACAAATATGATAGCATGCTACATATTACAACTT [TGCATGCA_site524],6.81
19,AAGATGAACCTTTACACATGCAACAAAAAATATACA [TGCATGCA_site166],7.26
20,ATCAACATTATGTTTAGTACTTAGTGAATTGTTAAT [XGTACX_site4913],6.36
21,ATAAAAAAAAGAAAAACACACACATATATATATATA [CACACA_site8243],9.25
22,ATAATAATAGTAATATGTACATATATATATATATAT [XGTACX_site7437],9.36

row,Sequence,gcPBM binding intensity (ln)
1,ATATATATATATATATGTACATATTTACATTTTGTA [XGTACX_site3529],9.38
2,TATACACATTCGCGTTGTACAAAAAAAAAAAAAAAG [XGTACX_site2880],6.34
3,AATAAAGGAGCCTATGAACACACACCGGTACATATA [CACACA_site9352],6.45
4,TCAAAAAAGACACACCGTACATACTATTTGGACAGG [XGTACX_site7699],6.24
5,AATTATATTTGAAATACACACATAAAAACCATATAG [CACACA_site7598],6.94
6,ATTTTTATTTTATATACACACAATAATACTAGAATA [CACACA_site7810],6.75
7,ATTTCATATGGTCAACGTACTCATGCATCCCTCCTT [XGTACX_site437],7.13
8,AGATATATAAAATATACACACAGTAATATTTATATA [CACACA_site6767],6.34
9,ATATATATCTACATATGTACATATATACATTACACA [XGTACX_site7210],6.78
10,AATATTTCTATATGAACATGCAATGTATCTTTTTAT [TGCATGCA_site738],5.97
11,TTTTTATGATTATACTTATATAATTTCATGATTGAA [CACACA_negctrl_site228],6.23
12,AATACTTACCAAAATACACACACACCCAAAATATAT [CACACA_site8559],7.11
13,TTCTAAATTAATAATACACACTTGCTAAAATCATTA [CACACA_site5733],6.42
14,TTTATTTTATCATTTGCACACGCACCCCCACATAAA [CACACA_site8007],10.2
15,ATTCTCCATGTTTGATGTACTCATATGACGACGGAG [XGTACX_site4923],6.99
16,TTCTTATATTGTACAGTACACACCTTTATAATGTTA [CACACA_site7953],7.54
17,ATATAAATAACGTGTACACACATATGTATTTATATA [CACACA_site6520],6.84
18,TCCAAAATATCCTTCACACACGAACAGTTTCATTTA [CACACA_site5511],6.49
19,AAAAATAAAACAATTACACACATAATTTTATTTTTA [CACACA_site928],6.4
20,ATTCCACTGTTTTAGTGTACTGGTCGTTTTTTTTTT [XGTACX_site1738],6.31
21,AATTTTTTATACACAAGTACAAACGCGTAGTCACTT [XGTACX_site2458],6.88
22,ATTAAGTCTTATATTACACACGACATTGTAATGTAA [CACACA_site528],6.39

row,Sequence,gcPBM binding intensity (ln)
1,TAAATTTTTTTTTTGATGCACTTAGTTATTATATTT,7.28
2,ATAACAATTATTTATCTACACACTTTTATGTTATTT [CACACA_site7886],7.01
3,AATGGCAAAATAGGCACACACACATATACAGATATA [CACACA_site4726],6.9
4,TTTATATTAATTTGTGTAAATGCATATGATGAGCAT [XGTACX_negctrl_site254],6.94
5,ATATATATATATATATGTACATATAATTTTTTTTTT [XGTACX_site6948],9.24
6,ACAAAAAAATAAAATATATATATATATATAATATAT [CACACA_negctrl_site805],7.19
7,ATAATAAAATAAATCACACATAATATAATGTAATAT [CACACA_site6144],6.49
8,ATTTATATATTTATATGTACATATCTATACATATAT [XGTACX_site7580],6.9
9,TTTTTAAAAAAAAAAAAATAAAAAAAAAAAAAATAT [XGTACX_negctrl_site7],6.19
10,AAATAAAGAATATAAATACACACTTAAATATATATT [CACACA_site4007],6.44
11,TGGACCAAACGACAAAAAAAAAGCAGAAAACAAAAA [GTGCAC_negctrl_site693],6.34
12,GAATTTTTGACGATATAGGAAATAATTATCCTGAAG [XGTACX_negctrl_site61],6.27
13,CTGTTAATTATATATTGTACAAAAGATATGATTATA [XGTACX_site6927],6.35
14,TATTTATTTATAAACACACAAATATTTTTATTTATA [CACACA_site6889],6
15,AAGAAAAGCAAACAAGTGCATAATAACAAAAAAAAT [GTGCAC_site9725],8.74
16,TAAGTTCGAATTACTTAAATATTGATTTTTTTAAAA [TGCATGCA_negctrl_site114],5.99
17,TCATAAAATATGTTTTGTACATAAAATTAAACAAGT [XGTACX_site1763],6.23
18,AAATAAGAGAAAATATGTACATACATATATTTATAT [XGTACX_site6210],6.53
19,AATACGTTTATATATTGTACGTTATATATATATATA [XGTACX_site7452],9.2
20,AAATATAAATAAAGATGTACATTATCTATATGTGAT [XGTACX_site4863],6.4
21,AAAAAAGAAAAAAGGACACACATAAATATACACCCG [CACACA_site5590],7.06
22,TTTTTCTGTTCTTTTTGTACTTAAATATATTTATTT [XGTACX_site5658],7.04

row,Sequence,gcPBM binding intensity (ln)
1,ACAATGAGGATATATACACACATACATTAAAAAAAT [CACACA_site6955],6.71
2,ATGTGTGTATTTTATAGTACAGTTACAAGCATTTTT [XGTACX_site6351],6.69
3,AGAATATAATTTTTATGTACATATATTAAATATATT [XGTACX_site8521],6.27
4,CACAAAAATAAACACACACACATATATATATATATA [CACACA_site4704],9.53
5,AATTTTCTACAAATGTGTACTAAATAAAATATTACT [XGTACX_site7175],6.16
6,AGGAATTTATAAAATTGTACTTTTAATTACCTACAG [XGTACX_site3153],5.93
7,TTCTTTTTGAAATATTAACACACATTTTGTTAATTA [CACACA_site9337],6.65
8,CAAACATTTTAATGTACACACACCCACAGACAAACA [CACACA_site5522],7.02
9,ATCCGTGTCTGAAATACACACATGATAATGTGAATG [CACACA_site8210],6.42
10,ATGGAAACAAGCATCACACATATAAATATATATATA [CACACA_site4979],8.59
11,ACCATGATAAATGTATTAAATGTATCATAACCTATG [CACACA_negctrl_site513],6.24
12,AACGAAAGAAAAAAAGCACACACAGTTTTGAGCAAT [CACACA_site8658],9.03
13,GTTTTTAAATATGCCATACACACTACTATATAATAA [CACACA_site1927],6.59
14,TAATATATTAATTTTTGTACTTAATTATATGTTTTT [XGTACX_site5654],6.16
15,GAAGAAAAAGAAAAAAGTACATATATTATATTATAA [XGTACX_site7870],6.14
16,ATTCATATTAAATATATATATATATATATATATATA [CACACA_negctrl_site484],9.38
17,TAAGATGATATAGACTGTACATATTGAACTTACAAG [XGTACX_site4290],6.29
18,AATGTATTCTCTCATGCACACTTTCTTTAAGGGACC [CACACA_site5245],8.87
19,ATATCTTATATCTTCACACATACACAATAAATACAT [CACACA_site5028],6.91
20,CTAAGAAGTATTTACACACCAACAAGGCGAAAAAAA [CACACA_site2945],6.2
21,ATATTTATATTTATGTGTACATATGAAATAATTATT [XGTACX_site7765],6.62
22,TAATATATTATGAGGGGTACATAATATGGTTTATTG [XGTACX_site8301],6.54

# Reference: the supplement of paper PMC11417369
